Source: the supplement of paper PMC7826260
The other results are listed elsewhere or left out. Viral Rep nickase domains cut single-stranded DNA in vitro for 1 h at 37 °C with 3 µM enzyme; only the middle of the 90-letter strands is printed. Numbers give uncut DNA relative to the enzyme-free pool, as log2; strong cutting gives strongly negative numbers. There is no active / inactive call. Shares of all reads are compared, so uncut sequences can rise above 0 when many others are cut.

Key:
Assay in all cases: uncleaved DNA left, log2 of reads against the no-enzyme library (log2 ratio); higher = less cleavage (more negative = more Rep cleavage of the k-mer); sequences stand for … in CTCGTCCG…ACCGGAGA
[1] = system: T1, Rep nickase domain of Muscovy duck circovirus
T1 sequence (residues 1-111, tag not shown): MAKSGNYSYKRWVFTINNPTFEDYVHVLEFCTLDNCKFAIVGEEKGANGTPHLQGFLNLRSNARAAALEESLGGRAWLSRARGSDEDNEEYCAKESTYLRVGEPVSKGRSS
Procedure: (§1)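 A pool of 90-nt single-stranded DNAs with seven random bases just before the constant AC of the nick site (name = the seven bases) was cut by 3 µM recombinant His6-SUMO-tagged Rep nickase domain (300 nM DNA, 50 mM HEPES pH 8.0, 50 mM NaCl, 1 mM MnCl2, 1 h, 37 °C, three replicates). Uncut DNA was amplified and sequenced.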

[2] = system: T2, Rep nickase domain of banana bunchy top virus
T2 sequence (residues 1-94, tag not shown): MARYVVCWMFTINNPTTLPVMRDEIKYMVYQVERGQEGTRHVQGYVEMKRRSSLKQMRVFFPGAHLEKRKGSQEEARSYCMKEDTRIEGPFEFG
Procedure: as §1

[3] = system: T3, Rep nickase domain of cabbage leaf curl virus
T3 sequence (residues 1-116, tag not shown): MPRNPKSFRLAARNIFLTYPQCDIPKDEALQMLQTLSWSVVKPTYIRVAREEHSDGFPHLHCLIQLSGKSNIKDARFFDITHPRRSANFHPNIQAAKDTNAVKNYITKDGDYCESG
Procedure: as §1

[4] = system: T4, Rep nickase domain of chickpea chlorotic dwarf virus
T4 sequence (residues 1-124, tag not shown): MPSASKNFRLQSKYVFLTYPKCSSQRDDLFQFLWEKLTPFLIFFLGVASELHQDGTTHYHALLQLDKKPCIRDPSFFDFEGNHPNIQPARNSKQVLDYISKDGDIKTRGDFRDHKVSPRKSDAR
Procedure: as §1

[5] = system: T5, Rep nickase domain of faba bean necrotic yellows virus
T5 sequence (residues 1-98, tag not shown): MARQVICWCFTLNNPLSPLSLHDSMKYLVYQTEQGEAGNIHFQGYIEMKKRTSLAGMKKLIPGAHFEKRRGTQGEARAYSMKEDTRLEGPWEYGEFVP
Procedure: as §1

[6] = system: T6, Rep nickase domain of maize striate mosaic virus
T6 sequence (residues 1-117, tag not shown): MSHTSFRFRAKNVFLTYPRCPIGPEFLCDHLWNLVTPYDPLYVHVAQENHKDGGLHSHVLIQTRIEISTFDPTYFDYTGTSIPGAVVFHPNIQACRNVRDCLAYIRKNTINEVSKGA
Procedure: as §1

[7] = system: T7, Rep nickase domain of porcine circovirus 2
T7 sequence (residues 2-116, tag not shown): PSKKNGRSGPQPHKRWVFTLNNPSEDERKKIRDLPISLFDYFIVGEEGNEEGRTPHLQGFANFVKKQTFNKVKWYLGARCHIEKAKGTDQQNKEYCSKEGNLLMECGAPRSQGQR
Procedure: as §1

[8] = system: T8, Rep nickase domain of tomato golden mosaic virus
T8 sequence (residues 1-124, tag not shown): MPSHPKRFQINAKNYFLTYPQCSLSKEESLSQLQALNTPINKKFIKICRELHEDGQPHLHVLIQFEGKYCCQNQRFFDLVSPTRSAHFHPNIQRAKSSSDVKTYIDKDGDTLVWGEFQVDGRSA
Procedure: as §1

[9] = system: T9, Rep nickase domain of tomato yellow leaf curl virus
T9 sequence (residues 1-136, tag not shown): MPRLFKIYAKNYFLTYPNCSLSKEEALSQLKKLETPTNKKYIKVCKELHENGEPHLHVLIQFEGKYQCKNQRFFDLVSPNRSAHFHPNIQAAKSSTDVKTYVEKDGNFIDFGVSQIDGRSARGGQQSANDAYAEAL
Procedure: as §1

[10] = system: T10, Rep nickase domain of wheat dwarf virus
T10 sequence (residues 1-137, tag not shown): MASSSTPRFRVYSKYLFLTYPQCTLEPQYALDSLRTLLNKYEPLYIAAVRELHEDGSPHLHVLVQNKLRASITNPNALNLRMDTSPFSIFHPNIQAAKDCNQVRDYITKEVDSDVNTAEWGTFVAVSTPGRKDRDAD
Procedure: as §1

Sequence | uncleaved DNA left (log2) [1] | uncleaved DNA left (log2) [2] | uncleaved DNA left (log2) [3] | uncleaved DNA left (log2) [4] | uncleaved DNA left (log2) [5] | uncleaved DNA left (log2) [6] | uncleaved DNA left (log2) [7] | uncleaved DNA left (log2) [8] | uncleaved DNA left (log2) [9] | uncleaved DNA left (log2) [10]
TGCTTGG | -0.0619 | -0.165 | -0.283 | -0.291 | -0.0812 | -0.752 | -0.102 | -0.112 | -0.217 | -0.359
ACCACGC | 0.0741 | 0.0374 | -0.207 | -0.214 | 0.0749 | -0.806 | 0.0943 | 0.167 | -0.0137 | -0.0371
GGTCCTC | -0.0317 | 0.0103 | 0.397 | 0.989 | 0.0164 | 1.63 | -0.0112 | -0.0628 | 0.0341 | 0.0706
TTTAGTT | -0.117 | -0.0795 | 0.0122 | -2.15 | -0.0361 | -0.431 | -0.816 | 0.00556 | -0.145 | -0.14
ATATGCT | -1.74 | -0.131 | -1.53 | -2.35 | 0.0478 | -1.54 | -2.49 | -0.188 | 0.0759 | -0.228
CTTACTA | -0.274 | -0.0677 | -0.338 | -2.69 | -0.0461 | -0.797 | -0.246 | -0.173 | 0.0436 | -0.137
CCAGCGA | -0.0706 | -0.126 | -0.86 | -0.288 | -0.14 | -0.738 | 0.000603 | -0.0627 | -0.101 | -0.265
TTCTGGA | 0.0889 | -0.0444 | 0.0643 | 0.136 | -0.0577 | -0.187 | 0.0349 | -0.0737 | 0.0239 | 0.0454
ATGTTTC | -0.0911 | -0.0891 | -0.0304 | -0.199 | -0.0566 | -0.533 | -0.126 | -0.0977 | -0.154 | -0.158
GCCACGA | 0.033 | -0.0553 | -0.0063 | 0.224 | -0.0756 | -0.563 | 0.0628 | 0.00276 | 0.0128 | 0.00696
ATGCTGA | 0.0752 | -0.044 | 0.267 | 1.17 | 0.0117 | 1.04 | 0.144 | 0.00468 | -0.195 | -0.0309
TGGACAA | 0.238 | 0.256 | 1.02 | 2.3 | 0.205 | 2.43 | 0.321 | 0.208 | 0.202 | 0.294
GTGGTGA | -0.0188 | 0.0864 | 0.332 | 0.894 | 0.0541 | 1.5 | 0.0454 | 0.0326 | -0.0176 | 0.0485
TATTGCT | -3.65 | -2.96 | -1.49 | -2.63 | -0.163 | -1.39 | -3.6 | -0.141 | 0.0353 | -0.163
GCTCTGC | 0.0141 | -0.0332 | -0.269 | -0.313 | -0.1 | -0.784 | 0.15 | -0.0775 | 0.00643 | -0.0599
GTTCTTC | -0.0733 | -0.000448 | 0.29 | 0.701 | -0.00763 | 1.54 | -0.0293 | -0.0184 | -0.0575 | -0.0091
GGGGTCA | 0.00646 | 0.156 | 0.871 | 1.94 | 0.027 | 2.3 | 0.197 | 0.0767 | 0.048 | 0.0819
GAATTAG | 0.0978 | -0.0283 | -0.719 | -0.443 | 0.0614 | -1.07 | 0.117 | -0.0249 | 0.0554 | 0.014
AAGCGTT | 0.0254 | -0.0777 | -0.0364 | 0.357 | -0.154 | 0.585 | -3.16 | -0.0711 | -0.23 | -0.0841
ACGCGGC | -0.021 | 0.0659 | -0.509 | -0.328 | 0.0597 | -0.864 | 0.286 | 0.0988 | 0.0752 | -0.042
CTCTAGT | -2.03 | -0.0846 | -0.412 | -1.04 | -0.116 | -1.09 | -3.5 | -0.231 | -0.0874 | -0.13
ACCATTC | 0.0156 | -0.0592 | -0.379 | -0.274 | 0.0281 | -0.976 | 0.0683 | -0.15 | -0.0665 | -0.0958
ATACCGT | -0.0295 | -0.0537 | -0.429 | -0.873 | -0.096 | -0.878 | -0.0308 | -0.0245 | -0.0756 | -0.219
GAGGCGG | -0.0545 | 0.00999 | 0.162 | 0.572 | 0.00568 | 0.531 | 0.181 | 0.11 | -0.0892 | 0.0213
GACTAAA | 0.0787 | -0.0249 | 0.121 | 0.468 | 0.101 | 0.619 | -0.748 | 0.0617 | -0.0388 | 0.0513
CATCTGA | 0.0284 | 0.0141 | -0.0392 | 0.0428 | 0.0811 | -0.218 | -0.0493 | -0.0904 | -0.00447 | 0.031
CAAACGT | -0.025 | -0.0178 | -0.398 | -1.23 | -0.0225 | -0.823 | 0.0288 | -0.0704 | -0.0362 | -0.174
AGACAAG | 0.15 | 0.137 | -0.315 | -0.0882 | 0.223 | -0.762 | 0.206 | 0.0667 | 0.177 | 0.178
CTAGACC | -0.049 | -0.0138 | 0.0284 | 0.298 | -0.141 | -0.237 | -0.105 | 0.00183 | -0.0719 | 0.0315
ACAAATA | 0.0697 | 0.104 | -0.0903 | -1.44 | 0.185 | -0.638 | 0.147 | 0.133 | -0.0694 | 0.117
